Experimental data as given in the supplement of paper PMC8728848.
The other results are listed elsewhere or left out.

Assays:
Test in all cases: glycan array binding signal (z-score within array); higher = stronger binding
Conditions in all cases: glycan notation: IUPAC condensed, linker removed
[1] = target: Neu5Ac(a2-3)Gal(b1-4)GlcNAc(b1-2)[Neu5Ac(a2-3)Gal(b1-4)GlcNAc(b1-6)]Man(a1-6)[Neu5Ac(a2-3)Gal(b1-4)GlcNAc(b1-2)Man(a1-3)]Man(b1-4)GlcNAc(b1-4)GlcNAc
Method in brief: (§1)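 Glycan array data came from 3228 arrays in the Consortium for Functional Glycomics database, and only arrays with an available protein sequence were kept. Glycan names were put into IUPAC-condensed notation, and columns mapping to the same glycan were averaged. The binding signal is a within-array Z-score, averaged across arrays of one protein sequence run at different concentrations or buffers and across linkers. A negative Z-score can be read as non-binding.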

[2] = target: Neu5Ac(a2-3)Gal(b1-4)GlcNAc(b1-2)[Neu5Ac(a2-3)Gal(b1-4)GlcNAc(b1-6)]Man(a1-6)[Neu5Ac(a2-3)Gal(b1-4)GlcNAc(b1-2)Man(a1-3)][GlcNAc(b1-4)]Man(b1-4)GlcNAc(b1-4)GlcNAc
Method in brief: as §1

[3] = target: Neu5Ac(a2-3)Gal(b1-4)GlcNAc(b1-3)Gal
Method in brief: as §1

[4] = target: Neu5Ac(a2-3)Gal(b1-4)GlcNAc(b1-3)Gal(b1-3)GlcNAc
Method in brief: as §1

[5] = target: Neu5Ac(a2-3)Gal(b1-4)GlcNAc(b1-3)Gal(b1-4)GlcNAc
Method in brief: as §1

[6] = target: Neu5Ac(a2-3)Gal(b1-4)GlcNAc(b1-3)Gal(b1-4)GlcNAc(b1-2)Man(a1-3)[Neu5Ac(a2-3)Gal(b1-4)GlcNAc(b1-3)Gal(b1-4)GlcNAc(b1-2)Man(a1-6)]Man(b1-4)GlcNAc(b1-4)GlcNAc
Method in brief: as §1

[7] = target: Neu5Ac(a2-3)Gal(b1-4)GlcNAc(b1-3)Gal(b1-4)GlcNAc(b1-3)Gal(b1-4)GlcNAc
Method in brief: as §1

[8] = target: Neu5Ac(a2-3)Gal(b1-4)GlcNAc(b1-3)Gal(b1-4)GlcNAc(b1-3)Gal(b1-4)GlcNAc(b1-2)Man(a1-3)[Neu5Ac(a2-3)Gal(b1-4)GlcNAc(b1-3)Gal(b1-4)GlcNAc(b1-3)Gal(b1-4)GlcNAc(b1-2)Man(a1-6)]GalNAc
Method in brief: as §1

[9] = target: Neu5Ac(a2-3)Gal(b1-4)GlcNAc(b1-3)Gal(b1-4)GlcNAc(b1-3)GalNAc
Method in brief: as §1

[10] = target: Neu5Ac(a2-3)Gal(b1-4)GlcNAc(b1-3)Gal(b1-4)GlcNAc(b1-3)[Neu5Ac(a2-3)Gal(b1-4)GlcNAc(b1-3)Gal(b1-4)GlcNAc(b1-6)]GalNAc
Method in brief: as §1

[11] = target: Neu5Ac(a2-3)Gal(b1-4)GlcNAc(b1-3)Gal(b1-4)GlcNAc(b1-6)[Gal(b1-3)]GalNAc
Method in brief: as §1

[12] = target: Neu5Ac(a2-3)Gal(b1-4)GlcNAc(b1-3)Gal(b1-4)[Fuc(a1-3)]GlcNAc
Method in brief: as §1

[13] = target: Neu5Ac(a2-3)Gal(b1-4)GlcNAc(b1-3)GalNAc
Method in brief: as §1

[14] = target: Neu5Ac(a2-3)Gal(b1-4)GlcNAc(b1-3)[Neu5Ac(a2-3)Gal(b1-4)GlcNAc(b1-6)]GalNAc
Method in brief: as §1

[15] = target: Neu5Ac(a2-3)Gal(b1-4)GlcNAc(b1-6)GalNAc
Method in brief: as §1

[16] = target: Neu5Ac(a2-3)Gal(b1-4)GlcNAc(b1-6)[Gal(b1-3)]GalNAc
Method in brief: as §1

[17] = target: Neu5Ac(a2-3)Gal(b1-4)GlcNAc(b1-6)[Neu5Ac(a2-3)Gal(b1-3)]GalNAc
Method in brief: as §1

[18] = target: Neu5Ac(a2-3)Gal(b1-4)GlcNAc6S
Method in brief: as §1

[19] = target: Neu5Ac(a2-3)Gal(b1-4)[Fuc(a1-3)]GlcNAc
Method in brief: as §1

[20] = target: Neu5Ac(a2-3)Gal(b1-4)[Fuc(a1-3)]GlcNAc(b1-2)Man
Method in brief: as §1

[21] = target: Neu5Ac(a2-3)Gal(b1-4)[Fuc(a1-3)]GlcNAc(b1-3)Gal
Method in brief: as §1

[22] = target: Neu5Ac(a2-3)Gal(b1-4)[Fuc(a1-3)]GlcNAc(b1-3)Gal(b1-4)GlcNAc
Method in brief: as §1

[23] = target: Neu5Ac(a2-3)Gal(b1-4)[Fuc(a1-3)]GlcNAc(b1-3)Gal(b1-4)[Fuc(a1-3)]GlcNAc(b1-3)Gal(b1-4)[Fuc(a1-3)]GlcNAc
Method in brief: as §1

[24] = target: Neu5Ac(a2-3)Gal(b1-4)[Fuc(a1-3)]GlcNAc(b1-3)GalNAc
Method in brief: as §1

[25] = target: Neu5Ac(a2-3)Gal(b1-4)[Fuc(a1-3)]GlcNAc(b1-6)[Gal(b1-3)]GalNAc
Method in brief: as §1

[26] = target: Neu5Ac(a2-3)Gal(b1-4)[Fuc(a1-3)]GlcNAc(b1-6)[Neu5Ac(a2-3)Gal(b1-3)]GalNAc
Method in brief: as §1

[27] = target: Neu5Ac(a2-3)Gal(b1-4)[Fuc(a1-3)]GlcNAc6S
Method in brief: as §1

[28] = target: Neu5Ac(a2-3)Gal6S(b1-4)GlcNAc
Method in brief: as §1

[29] = target: Neu5Ac(a2-3)Gal6S(b1-4)[Fuc(a1-3)]GlcNAc
Method in brief: as §1

Neu5Ac(a2-3)GalNAc = target: Neu5Ac(a2-3)GalNAc
Method in brief: as §1

[30] = target: Neu5Ac(a2-3)GalNAc(b1-4)GlcNAc
Method in brief: as §1

[31] = target: Neu5Ac(a2-3)[GalNAc(b1-4)]Gal(b1-4)Glc
Method in brief: as §1

[32] = target: Neu5Ac(a2-3)[GalNAc(b1-4)]Gal(b1-4)GlcNAc
Method in brief: as §1

[33] = target: Neu5Ac(a2-3)[GalNAc(b1-4)]Gal(b1-4)GlcNAc(b1-3)GalNAc
Method in brief: as §1

[34] = target: Neu5Ac(a2-3)[Neu5Ac(a2-6)]GalNAc
Method in brief: as §1

Neu5Ac(a2-6)Gal = target: Neu5Ac(a2-6)Gal
Method in brief: as §1

B1: Gal 7 (Homo sapiens) (protein)
chain: MSNVPHKSSLPEGIRPGTVLRIRGLVPPNASRFHVNLLCGEEGGSDAALHFNPRLDTSEVVFNSKEGGSWGREERGPGVPFGRGQPFEVLIIASDDGFKAVVGDAQYHHFRHRLPLARVRLVEVGGDVQLDSVRIF
[1]
  glycan array binding signal (z-score): 0.256
[2]
  glycan array binding signal (z-score): -0.245
[3]
  glycan array binding signal (z-score): -0.321
[4]
  glycan array binding signal (z-score): -0.232
[5]
  glycan array binding signal (z-score): 0.054
[6]
  glycan array binding signal (z-score): -0.153
[7]
  glycan array binding signal (z-score): 0.817
[8]
  glycan array binding signal (z-score): 2.74
[9]
  glycan array binding signal (z-score): -0.259
[10]
  glycan array binding signal (z-score): 0.006
[11]
  glycan array binding signal (z-score): -0.262
[12]
  glycan array binding signal (z-score): -0.309
[13]
  glycan array binding signal (z-score): -0.246
[14]
  glycan array binding signal (z-score): -0.216
[15]
  glycan array binding signal (z-score): -0.17
[16]
  glycan array binding signal (z-score): -0.217
[17]
  glycan array binding signal (z-score): -0.273
[18]
  glycan array binding signal (z-score): 0.277
[19]
  glycan array binding signal (z-score): -0.305
[20]
  glycan array binding signal (z-score): -0.293
[21]
  glycan array binding signal (z-score): -0.331
[22]
  glycan array binding signal (z-score): -0.11
[23]
  glycan array binding signal (z-score): -0.261
[24]
  glycan array binding signal (z-score): 0.74
[25]
  glycan array binding signal (z-score): 0.144
[26]
  glycan array binding signal (z-score): -0.059
[27]
  glycan array binding signal (z-score): -0.314
[28]
  glycan array binding signal (z-score): -0.298
[29]
  glycan array binding signal (z-score): -0.314
Neu5Ac(a2-3)GalNAc
  glycan array binding signal (z-score): -0.307
[30]
  glycan array binding signal (z-score): -0.334
[31]
  glycan array binding signal (z-score): -0.24
[32]
  glycan array binding signal (z-score): -0.248
[33]
  glycan array binding signal (z-score): -0.111
[34]
  glycan array binding signal (z-score): -0.34
Neu5Ac(a2-6)Gal
  glycan array binding signal (z-score): -0.33
